Source: patent US8927717B1, “Thiochromeno[2,3-c]quinolin-12-one derivatives, preparation method and application thereof” (National Defense Medical Center, priority 2014, dated 2015)

Tested on: NCI-H322M
Assay type: cell-based
Conditions: for Growth percent NCI-H322M: Non-small cell lung cancer, 48 hours, SRB; for Growth percent NCI-H322M / Growth percent: 10^−5 molar; for GI50 / CC50: Homo sapiens; for GI50 / CC50 / TGI / Growth percent: NCI-H322M; for GI50 / CC50 / TGI: five dose; for CC50: read-out: LC50 (the source's name)

SMILES	Growth percent NCI-H322M [%]	GI50 [µM]	CC50 [µM]	TGI [µM]	Growth percent [%]
O=c1c2ccc(Cl)cc2sc2c(Cl)nc3ccccc3c12 [Compound 3, 6,9-Dichloro-12H-thiochromeno[2,3-c]quinolin-12-one]	100.12	–	–	–	–
O=c1c2cc(Cl)ccc2sc2c(N3CCN(Cc4ccccc4)CC3)nc3ccccc3c12 [Compound 11, 6-(4-Benzylpiperazin-1-yl)-10-chloro-12H-thiochromeno[2,3-c]quinolin-12-one]	88.92	–	–	–	–
CNc1nc2ccccc2c2c(=O)c3cc(Cl)ccc3sc12 [Compound N1, 10-Chloro-6-methylamino-12H-thiochromeno[2,3-c]quinolin-12-one]	60.89	–	–	–	–
CCNc1nc2ccccc2c2c(=O)c3cc(Cl)ccc3sc12 [Compound N2, 10-Chloro-6-ethylamino-12H-thiochromeno[2,3-c]quinolin-12-one]	74.88	69.5	> 100	>100	–
CCC(CC)Nc1nc2ccccc2c2c(=O)c3cc(Cl)ccc3sc12 [Compound N6, 10-Chloro-6-(pentan-3-ylamino)-12H-thiochromeno[2,3-c]quinolin-12-one]	92.45	–	–	–	–
CN(C)CCNc1nc2ccccc2c2c(=O)c3cc(Cl)ccc3sc12 [Compound N7, 10-Chloro-6-((2-(dimethylamino)ethyl)amino)-12H-thiochromeno[2,3-c]quinolin-12-one]	49.16	1.74	5.81	3.18	–
O=c1c2cc(Cl)ccc2sc2c(NCCO)nc3ccccc3c12 [Compound N9, 10-Chloro-6-(2-ethanolamino)-12H-thiochromeno[2,3-c]quinolin-12-one]	79.00	–	–	–	–
CCC(CO)Nc1nc2ccccc2c2c(=O)c3cc(Cl)ccc3sc12 (stereo not drawn) [Compound N12, 10-Chloro-6-((1-hydroxybutan-2-yl)amino)-12H-thiochromeno[2,3-c]quinolin-12-one]	58.98	–	–	–	–
CC(C)CC(C)Nc1nc2ccccc2c2c(=O)c3cc(Cl)ccc3sc12 (stereo not drawn) [Compound N13, 10-Chloro-6-((4-methylpentan-2-yl)amino)-12H-thiochromeno[2,3-c]quinolin-12-one]	85.51	–	–	–	–
NCCNc1nc2ccccc2c2c(=O)c3cc(Cl)ccc3sc12 [Compound N14, 6-((2-Aminoethyl)amino)-10-chloro-12H-thiochromeno[2,3-c]quinolin-12-one]	−50.28	1.65	6.74	3.34	–
O=c1c2cc(Cl)ccc2sc2c(NCCN3CCOCC3)nc3ccccc3c12 [Compound N16, 10-Chloro-6-((2-morpholinoethyl)amino)-12H-thiochromeno[2,3-c]quinolin-12-one]	–	–	–	–	76.96
CN(C)CCCNc1nc2ccccc2c2c(=O)c3cc(Cl)ccc3sc12 [Compound N17, 10-Chloro-6-((3-(dimethylamino)propyl)amino)-12H-thiochromeno[2,3-c]quinolin-12-one]	–	–	–	–	82.29
O=c1c2cc(Cl)ccc2sc2c(NCCCNCCO)nc3ccccc3c12 [Compound N19, 10-Chloro-6-((3-((2-hydroxyethyl)amino)propyl)amino)-12H-thiochromeno[2,3-c]quinolin-12-one]	–	1.8	7.03	3.56	10.05
O=c1c2cc(Cl)ccc2sc2c(NC3CCCCC3)nc3ccccc3c12 [Compound N21, 10-Chloro-6-(cyclohexylamino)-12H-thiochromeno[2,3-c]quinolin-12-one]	–	–	–	–	91.10
O=c1c2cc(Cl)ccc2sc2c(NCc3ccccc3)nc3ccccc3c12 [Compound N25, 6-(Benzylamino)-10-chloro-12H-thiochromeno[2,3-c]quinolin-12-one]	–	> 100	> 100	>100	91.00
O=c1c2cc(Cl)ccc2sc2c(NCc3ccc4c(c3)OCO4)nc3ccccc3c12 [Compound N27, 6-((Benzo[d][1,3]dioxol-5-ylmethyl)amino)-10-chloro-12H-thiochromeno[2,3-c]quinolin-12-one]	–	–	–	–	73.65
O=c1c2cc(Cl)ccc2sc2c(NCCc3ccccc3)nc3ccccc3c12 [Compound N30, 10-Chloro-6-(phenethylamino)-12H-thiochromeno[2,3-c]quinolin-12-one]	–	–	–	–	117.72
COc1ccc(CCNc2nc3ccccc3c3c(=O)c4cc(Cl)ccc4sc23)cc1 [Compound N31, 10-Chloro-6-((4-methoxyphenethyl)amino)-12H-thiochromeno[2,3-c]quinolin-12-one]	–	–	–	–	99.19
